These results are taken from ChEMBL document CHEMBL1157539, “Thousands of chemical starting points for antimalarial lead identification” (Nature, 2010).

Each structure is given as a SMILES string. Whole data set: some 13,000 compounds, median “IFI” near 4, cut for the highest 2% near 17. This is one part of the list.

This test is described as follows: GSK_TCMDC: Inhibition Frequency Index (IFI). The number of non-kinase HTS assays where a compound showed > 50 % inhibition, expressed as a percentage of the number of such assays in which the compound was tested (-0 is zero). Type of test: functional.
`Cc1cccc2nc(-c3cccc(-c4cccc(NC(=O)c5cnccc5C(F)(F)F)c4)c3)[nH]c12` came in with an IFI of 7.34%. `O=S(=O)(Nc1cccc(CCN2CCC(N3CCCCC3)CC2)c1)c1cccc(C(F)(F)F)c1` registered an IFI of 3.13%.

In the case of `CC1(C)NC(N)=NC(=N)N1OCc1cc(Cl)cc2c1OCOC2`, the IFI was found to be 2.19%. In the case of `Oc1ccc(Br)cc1C(O)CNCc1ccccc1OCc1ccccc1` (stereo not given), the IFI stood at 3.88%. `CC(C)[C@H](NC(=O)c1ccc(O)c(-c2ccc(Cl)c(Cl)c2)c1)C(=O)NCCN1CCCC1` returned an IFI of 2.22%.

As to `O=C(Nc1ccc(Cl)cc1)Nc1cccc(-c2ccc(-c3nc4ccccc4[nH]3)cc2)c1`, the IFI came to 4.04%. To `Cc1[nH]c(C)c(-c2ccc(-c3ccccc3F)nc2)c(=O)c1Br` belongs -0%; to `CCOC(=O)[C@H](Cc1cc([N+](=O)[O-])c(Oc2ccc(OC)c(Cc3ccc(OC)c(C(C)C)c3)c2)c([N+](=O)[O-])c1)NC(=O)C(F)(F)F`, 2.31%. `O=C(Nc1ccc(-c2cccc(-c3nc4ccccc4[nH]3)c2)cc1)Nc1ccc2c(c1)OCO2` yielded an IFI of 5.05%. Take `COc1c(CNCCCCCCNCc2cc(Cl)c3ccccc3c2OC)cc(Cl)c2ccccc12`: the IFI came out at 19.4%. With `O=c1cc(NCCCCNCc2cccc(C(F)(F)F)c2)[nH]c2ccccc12`, the IFI turned out to be 3.01%. Compound `ON=C1c2cc(OCCN3CCCCC3)c(Cl)cc2-c2cc(Cl)c(OCCN3CCCCC3)cc21` returned an IFI of 9.42%. `Cc1cc(NCCC(=O)NCCOc2ccccc2)nc(NCCc2ccc(F)cc2)n1` yielded an IFI of 2.44%. `NC1=NC(c2ccccc2)N(c2ccccc2)C(N)=N1` (stereo not given): the IFI came out at 0.71%. For the compound `COc1ccc(-c2cnc3ccc(NCCCO)nn23)cc1OC`, the IFI came out at 6.77%. To `Clc1ccc2c(NCCCCCCCCNc3ccnc4cc(Cl)ccc34)ccnc2c1` belongs 2.21%; to `CCCc1cc(=O)[nH]c(-n2nc(C)cc2NC(=O)CC(c2ccccc2)c2ccccc2)n1`, 12.2%. `CC(C)(C)c1ccc(NC(=O)c2cccc(CN3CCCN(Cc4ccsc4)CC3)c2)cc1` gave an IFI of 11%. In turn, `Cc1cccc2nc(-c3ccc(-c4cccc(C(=O)NCCN5CCCC5)c4)s3)[nH]c12` came in with an IFI of 5.41%. To `Clc1cc(Cl)c2cc(CN[C@H]3CCC[C@@H]3CNc3nc4ccccc4[nH]3)[nH]c2c1` belongs 14%; to `Nc1c2c(nc3ccc(NC(=O)Cc4ccccc4)cc13)CCCC2`, 2.84%; to `COc1ccc(NC(=O)CCNc2cc(C)nc(NCc3cccc(C)c3)n2)cc1`, 0%. As to `CN(C)c1ccc(/N=C2/N/C(=N/c3ccc(N(C)C)cc3)c3ccccc32)cc1`, the IFI was 5.63%. Compound `O=C(COc1ccccc1Cc1ccccc1)Nc1cc(Cl)ccc1-n1cncn1` displayed an IFI of 0%. In turn, `O=C(Nc1cc(Cl)cc(Cl)c1)c1cc(Cl)c(=O)n(Cc2cccc(Cl)c2)c1` returned an IFI of 7.09%. Compound `COc1ccc(-c2cnc3ccc(N4CCCC4)nn23)cc1OC` gave an IFI of 5%.

Take `Cc1cc(CN2CC[C@H](NC(=O)c3ccc(Cl)c(Cl)c3)C2)ccc1OCCCN(C)C`: the IFI was determined as 6.67%.

`CN(CCc1ccccc1)c1ncc(-c2ccccc2CNCc2ccccc2O)cn1` showed an IFI of 4.88%. `O=C(NCC1CCC(C(=O)NC2CCCc3ccccc32)CC1)c1ccc(O)c(-c2ccc(Cl)c(Cl)c2)c1` (stereo not given) returned an IFI of 0.76%. With `c1cc(CNCCc2ccncc2)cc(-c2csc(-c3nc4ccccc4[nH]3)c2)c1`, the IFI is 2.97%. As to `COc1ccc(-c2ccc(NC(=O)c3ccc(C#N)cc3)cc2)cc1CN1CCCN(C)CC1`, the IFI is 3.92%. To `N=C(N)Nc1nc(-c2cccc(NC(=O)CCCCCCCON3C(N)=NC(N)=NC34CCCCC4)c2)cs1` belongs 3.73%; to `O=C(/C=C/c1ccc(Cl)c(Cl)c1)NCCCCCCN1CCCN(C(=O)Nc2cc(F)cc(F)c2)CC1`, 7.44%.

The compound `Cc1ccc(-n2cc(CNCCCn3ccnc3)c(-c3cccc(C)c3)n2)cc1` showed an IFI of 9.76%.

The compound `CS(=O)(=O)N(CC(O)Cn1c2ccc(Cl)cc2c2cc(Cl)ccc21)c1ccccc1` (stereo not given) showed an IFI of -0%. The compound `O=C(Nc1ccc(CCN2CCC(c3nc(COCC(F)(F)F)c(-c4ccccc4)o3)CC2)cc1)c1ccc(F)cc1` returned an IFI of 0.72%. With `CC(CCON1C(N)=NC(N)=NC1(C)C)c1ccc(Cl)c(Cl)c1` (stereo not given), the IFI turned out to be 7.09%. `CC(C)CNc1nc(N)nc2ccc3c(ccn3CC(C)C)c12` yielded an IFI of 8.47%. The same measure for `COc1cc(CN2CCC(CO)(Cc3cccc(C(F)(F)F)c3)CC2)c(Cl)cc1O`: 2.44%. `O=C(/C=C/c1ccc(C(F)(F)F)cc1)NCCCCCN1CCCN(C(=O)Nc2cccc(Cl)c2)CC1` had an IFI of 8.82%.

`COc1ccc(CCN(C)CCCCc2ccc(NC(=O)c3cccc4c(=O)c5cc(F)ccc5sc34)cc2)cc1OC`: the IFI stood at 10%.

`COC(=O)c1cccc(CNCc2ccc(-c3ccc(-c4nc5cc(F)ccc5[nH]4)s3)cc2)c1` had an IFI of 6.8%. As to `O=C(/C=C/c1ccc(Cl)cc1)NCCCCCN1CCN(C(=O)C=Cc2ccc(Cl)c(Cl)c2)CC1`, the IFI was determined as 6.84%.

Turning to `CC(=O)c1ccc(-c2ccccc2)s1`, the IFI was found to be 0.75%. `Cc1cc(C(=O)Nc2nc(-c3ccccn3)nc3ccsc23)no1` displayed an IFI of 8.4%. In the case of `CC(C)CNCc1cccc(-c2ccccc2CN(C(=O)NCCc2ccccc2)C2CCN(Cc3ccccc3)CC2)c1`, the IFI turned out to be 14.1%.

For `CCc1c(CCNCC/C=C/CCNCCc2ccc(OC)c(OC)c2CC)ccc(OC)c1OC`, the IFI is 6.15%.

Turning to `CN1CCCN(Cc2cccc(-c3cccc(NC(=O)c4ccc(Cl)cc4)c3)c2)CC1`, the IFI worked out at 7.69%. As to `Cc1cccc2nc(-c3cccc(-c4cccc(NC(=O)NCc5ccccc5)c4)c3)[nH]c12`, the IFI was 3.03%. To `COc1ccc(Cl)cc1-c1nc(C(=O)NCCN2CCCCC2)c(C(C)C)s1` belongs 9.33%; to `O=C(NNC(=O)c1ccc(CN2CCC(c3nc4ccccc4[nH]3)CC2)cc1)Nc1ccc(Oc2ccccc2)cc1`, 7.14%; to `COc1ccc(CNCc2ccc(-c3ccc(CNCCc4ccccc4)cn3)cc2)cn1`, 1.47%. To `CCCCCCN1CCC(NCc2ccc(C(F)(F)F)cc2)CC1` belongs 4.17%; to `O=C1Nc2cccc3c2C1(CCCCN1CCC(c2c(-c4ccccc4)[nH]c4ccccc24)CC1)CCC3` (stereo not given), 7.3%. `CCc1c(CCNCCCCCCNCCc2ccc([N+](=O)[O-])cc2)ccc(O)c1O` registered an IFI of 9.66%. `CC1CC(NCCCNc2cc(=O)c3ccccc3[nH]2)c2cc(Cl)c(Cl)c(Cl)c21` (stereo not given) showed an IFI of 6.43%. For `CC1(C)NC(N)=NC(=N)N1OCCCCOc1ccc(Cl)cc1C1CCCCC1`, the IFI came to 15.3%. Compound `CCCCc1ccc(C(=O)Nc2ccc3nc(N4CCN(C)CC4)cc(C)c3c2)cc1` returned an IFI of 7.38%. Consider `CC(C)(C)NCC(O)COc1ccc(Cl)cc1C1=NNC(=O)CC1` (stereo not given), for which the IFI was -0%. With `Cc1ccc(C(=O)NC2C(=O)NC2c2ccccc2)c(C)c1` (stereo not given), the IFI is -0%. As for `CCCN(CCC)S(=O)(=O)c1ccc(C(=O)N2CCC(C(=O)OCC)CC2)cc1`, the IFI was -0%. `COc1ccc(C(=O)NCCCCN2CCC(c3ccc4c(c3OC)CCCC4)CC2)cc1-c1ccc(C(F)(F)F)cc1` registered an IFI of 12.2%. `CC(C)(C)c1ccc2[nH]c(-c3ccc(C(=O)NC4CCN(Cc5ccccc5)CC4)s3)nc2c1` returned an IFI of 5.04%. As for `CC1(C)N=C(N)N=C(N)N1OCc1ccc2c(c1)OCO2`, the IFI turned out to be 1.46%. `CC(Cc1ccc(OCCN2CCN(c3cccc(Cl)c3)CC2)cc1)NCC(O)c1cccc(Cl)c1` (stereo not given) showed an IFI of 16.4%. Turning to `COc1ccc2ncc(F)c(NC(=O)C3CCC(NCc4cc5cc(F)cc(F)c5[nH]4)CC3)c2n1` (stereo not given), the IFI stood at 1.9%. To `CCCN(CCC)C(=O)c1cc(C(=O)N[C@@H](Cc2ccccc2)[C@H](O)CNC2CC2)cc(N2CCCCS2(=O)=O)c1` belongs 2.94%; to `CNC(=O)C1Cc2c([nH]c3cc(Br)ccc23)C2(CCN(CCc3ccccc3)CC2)N1` (stereo not given), 7.86%; to `CCCCOC(=O)NCCCC[C@H](NC(=O)OC(C)(C)C)C(=O)N[C@H](C(=O)OC(c1ccccc1)c1ccccc1)[C@H]1O[C@@H](n2ccc(=O)[nH]c2=O)[C@@H]2OC(C)(C)O[C@@H]21`, 3.01%. `COc1cc(Cc2cnc3nc(N)nc(N)c3c2C)cc(OC)c1OC` displayed an IFI of 1.6%. Compound `CCN(CC)CCCNc1nccc(N(C)c2ccc(NC(=O)Nc3cc(C(F)(F)F)ccc3F)cc2)n1` came in with an IFI of 5%.

For the compound `Cc1cc2c(/C=C/C(=O)NC3CCC(CCN4CCc5ccc(C#N)cc5CC4)CC3)cccc2[nH]1` (stereo not given), the IFI is 2.29%. The compound `CCOc1cc(C(=O)NCc2ccc(Cl)c(Cl)c2)ccc1-c1nc2cc(Cl)ccc2[nH]1` came in with an IFI of 1.53%.

As for `CCN1C(c2ccc(Cl)cc2)C(CNCc2ccccc2O)CC1(C)CO` (stereo not given), the IFI amounted to 6.98%.

As to `c1ccc(-c2nc(NC3CCCCC3)cc(C3CC3)n2)nc1`, the IFI was determined as 7.83%. In turn, `CC(=O)Oc1cc(C)ccc1C1CCN(CCCCNC(=O)c2ccc(NC(=O)c3ccc(Cl)cc3)cc2)CC1` had an IFI of -0%.

The compound `COc1ccc2nc(Nc3nc4cnccc4[nH]3)sc2c1` came in with an IFI of 3.82%. `O=C(C=Cc1ccc(Cl)c(Cl)c1)NCCCCCN1CCC(CCNS(=O)(=O)c2ccc(F)cc2)CC1` gave an IFI of 6.52%. Compound `C=CCc1c(C(=O)NCC23CC4CC(CC(C4)C2)C3)nc2ccccc2c1O` registered an IFI of 0.78%. The same measure for `COc1ccc(/C=C/C(=O)Nc2ccc(-c3ccncc3)cc2)cc1CCCN(C)C`: 2.99%.

On to `CCOc1ccc(Cc2c(C)nc3nc(N)nc(N)c3c2C)cc1`, for which the IFI is 2.19%.

As to `Cc1sc2cc(Cl)cc(Cl)c2c1S(=O)(=O)Nc1ccc2nccc(N3CCNCC3)c2c1`, the IFI turned out to be 6.11%. `Cc1noc(C)c1-c1cccc(CNCc2cccc(-c3ccc(-c4nc5ccccc5[nH]4)s3)c2)c1` showed an IFI of 3.92%. Consider `Cc1cccc2nc(-c3ccc(-c4ccc(NC(=O)C5CCN(C)CC5)cc4)cc3)[nH]c12`, for which the IFI turned out to be 4.24%. Consider `CCCCCCN1CCC(NCc2ccc(CN(C)C)cc2)CC1`, for which the IFI worked out at 3.38%. The same measure for `COc1ccc2ncc(F)c([C@@H](O)CN3CCC(NCc4ccc5c(c4)NCCS5)CC3)c2n1`: 5.59%; for `Cc1nc(C(=O)N2CCCC[C@H]2CNC(=O)c2ccc(-c3ccc(N4CCCC4=O)cc3C)cc2)c(-c2ccc(F)cc2)s1`: 2.9%. The compound `CC1CN(c2ccc(C(=O)NCC3CC3)cc2NC(=O)OCc2ccccc2)CC(C)O1` (stereo not given) showed an IFI of 2.38%. `Cc1cccc2nc(-c3ccc(-c4ccc(CNCC(C)C)cc4)cc3)[nH]c12` registered an IFI of 7%. Regarding `Cc1noc(C)c1-c1ccc2c(Nc3ccccc3C(C)(C)C)c(C(=O)NCc3ccc(C(F)(F)F)cc3)cnc2c1`, the IFI is 3.45%.
